From PubChem BioAssay AID2147 (National Center for Advancing Translational Sciences (NCATS), 2009)
Out of some 230,000 compounds screened, about 3,600 (1.6%) were called active. This list was built around the results that the source calls inconclusive (neither active nor inactive); the mix of calls is not that of the screen. The call rests on the fitted dose curve; in most records, active means well fitted inhibition curve with a large enough effect (not every such curve was filed as active); inconclusive means small, poorly fitted or top-dose-only effect, or another doubt; inactive means no such curve, though single readings can be large or run the other way. Where the call is inconclusive, the potency comes from a doubtful curve fit.

The molecules below were run against Lysine-specific demethylase 4E (Homo sapiens) (UniProt B2RXH2) (assay: qHTS Assay for Inhibitors of Human Jumonji Domain Containing 2E (JMJD2E)). Details: JMJD2E catalytic domain, FDH-coupled NADH fluorescence (FDH is formaldehyde dehydrogenase); series mostly up to 57.1 µM.
From the text: Assay Provider: Structural Genomics Consortium [SGC] Screening Center PI: Austin, C.P. Screening Center: NIH Chemical Genomics Center [NCGC] The fine interplay among methylation states of several lysine residues on the tails of histone proteins is a major determinant of the transcriptional state of the associated DNA coding regions and is commonly referred to as the histone code. Histone lysine demethylases catalyze the removal of methyl groups from methylated lysine sidechains on histones H3 and H4, thus antagonizing the reactions catalyzed by histone lysine methyltransferases. […] In search for novel inhibitors of JMJD2E demethylase, a member of the largest set of histone demethylases belonging to the Fe(II) and 2-oxoglutarate oxygenase (2OG) superfamily, we performed a quantitative high-throughput screen (Inglese 2006) by using an assay which utilizes a trimethylated peptide substrate corresponding to a fragment of histone H3 (sequence ARKme3STGGK) with detection of the formaldehyde co-product in real time by a formaldehyde dehydrogenase (FDH) coupled reaction. FDH catalyzes oxidation of formaldehyde to formic acid with the concomitant reduction of the non-fluorescent beta-nicotinamide adenine dinucleotide hydrate (NAD+) cofactor to the fluorescent NADH co-product. References: Inglese, J., Auld, D., Jadhav, A., Johnson, R., Simeonov, A., Yasgar, A., Zheng, W. and Austin, C. Proc Natl Acad Sci USA 2006, 103, 11473-11478. N. R. Rose, S. S. Ng, J. Mecinovic, B. M. Lienard, S. H. Bello, Z. Sun, M. A. McDonough, U. Oppermann and C. J. Schofield, J Med Chem, 2008, 51, 7053-7056. Sakurai, M., Rose, N., Schultz, L., Quinn, A., Jadhav, A., Ng, S., Oppermann, U., Schofield, C.J. and Simeonov, A. Mol BioSystems 2009, in press. S. Michael, D. Auld, C. Klumpp, A. Jadhav, W. Zheng, N. Thorne, C. Austin, J. Inglese and A. Simeonov, Assay Drug Dev Technol, 2008, 6, 637-657.
Reagents and Controls: Ferrous ammonium sulfate, (+)-sodium L-ascorbate, beta-nicotinamide adenine dinucleotide hydrate (NAD+), Tween-20, formaldehyde dehydrogenase from P. putida (FDH), and disodium 2-oxoglutarate were from Sigma (St. Louis, MO). Black solid-bottom 384-well or 1,536-well assay plates were from Greiner Bio-One (Monroe, NC). Enzyme was supplied by Prof. Udo Oppermann, SGC-Oxford. The catalytic domain of human JMJD2E (residues 1-337) was produced as an N-terminally His6-tagged protein in E. coli, and purified by Ni-affinity chromatography and size-exclusion chromatography, and stored in HEPES 50 mM/ NaCl 500 mM pH 7.5, as reported in Rose 2008. The trimethylated histone peptide substrate ARK(me3)STGGK was synthesized and HPLC-purified by the Tufts University Core Facility (Boston, MA). Substrate solution (Sakurai 2009) contained 50 uM ARK(me3)STGGK, 0.00025 U/uL FDH, 50 uM 2-oxoglutarate, 250 uM NAD+, 1 mM ascorbate, and 10 uM ferrous ammonium sulfate. Controls and plate map: Buffer (150 mM HEPES pH 7.5 containing 0.01% Tween-20) in columns 3 and 4 as negative control (no enzyme) and 100 nM JMJD2E final concentration in columns 1,2, and 5-48. Assay Steps: Enzyme and buffer solutions (3 uL) were dispensed into a 1,536-well Greiner black solid-bottom assay plate. The library compounds (23 nL) were transferred using a Kalypsys pintool equipped with 1,536-pin array. The plate was incubated at room temperature (15 min), and then a 1 uL aliquot of substrate solution was added to initiate the reaction. The plate was transferred to ViewLux imager where an initial reading using standard UV optics (Ex 340 nm, Em 450 nm) was obtained. The plate was then removed from the reader, incubated for 30 minutes at room temperature, and returned to the reader for a second fluorescence reading. A fully automated robotic screening system (Kalypsys Inc, San diego, CA) was used to perform the above steps as described previously (Michael 2008). […]
Further: nearly all actives have a fitted effect of over 50% in size.
Potency means the concentration at half of the fitted maximal effect; tags describe the fitted curve by direction and shape.

UniProt B2RXH2, sequence (B2RXH2 whole entry, looked up, the tested form may be a part): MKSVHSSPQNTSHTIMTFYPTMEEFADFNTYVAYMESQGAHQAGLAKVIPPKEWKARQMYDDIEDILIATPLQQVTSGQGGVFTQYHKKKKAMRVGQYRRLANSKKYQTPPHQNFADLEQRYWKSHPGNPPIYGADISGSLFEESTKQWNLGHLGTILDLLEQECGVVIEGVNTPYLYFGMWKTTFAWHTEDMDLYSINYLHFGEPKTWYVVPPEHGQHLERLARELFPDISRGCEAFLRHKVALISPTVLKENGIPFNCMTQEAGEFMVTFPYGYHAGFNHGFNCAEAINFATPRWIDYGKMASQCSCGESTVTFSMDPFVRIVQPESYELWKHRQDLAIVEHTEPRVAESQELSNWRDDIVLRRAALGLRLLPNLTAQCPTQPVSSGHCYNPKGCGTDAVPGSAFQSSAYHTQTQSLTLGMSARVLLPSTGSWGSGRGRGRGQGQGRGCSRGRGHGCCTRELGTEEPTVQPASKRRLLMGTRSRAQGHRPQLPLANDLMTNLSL

| Structure (SMILES) | Potency |
| --- | --- |
| Fc1ccc(C2c3[nH]c4ccccc4c3CCN2CCCn2cccn2)cc1 (configuration not stated) | inconclusive: 31.6 µM [inhibitor, partial curve] |
| COc1ccc(/C=C/c2ccccc2)cc1[C@H]1[C@@H]2C=CCC[C@@]2(C)C(=O)N1Cc1ccccc1 | inconclusive: 28.2 µM [inhibitor, partial curve] |
| O=S(=O)(c1ccc(NC(=S)N2CCN(c3ccc(O)cc3)CC2)cc1)N1CCOCC1 | inconclusive: 14.1 µM [inhibitor, partial curve] |
| NC(=O)c1ccccc1NS(=O)(=O)Cc1ccc(Cl)cc1 | inconclusive: 28.2 µM [inhibitor, partial curve] |
| COc1cc(OC)c2c(=O)c(-c3ccccc3)coc2c1 | inconclusive: 31.6 µM [inhibitor, partial curve] |
| CCSc1nc(O)c(C2OC(=O)c3c2ccc(OC)c3OC)c(=O)n1CC (configuration not stated) | inconclusive: 39.8 µM [inhibitor, single point] |
| Cn1cnc([N+](=O)[O-])c1SCCO | inactive |
| COc1ccc(/C(O)=C2/C(=O)C(=O)N(CCN3CCOCC3)C2c2ccc(C)cc2)cc1 (configuration not stated) | inactive |
| COc1ccc(COc2ccccc2C(=O)NCc2ccccc2)cc1F | inactive |
| COC(=O)c1ccc(N2CCN(C(C)=O)CC2)c(NC(=O)COc2ccccc2C)c1 | inactive |
| O=C(CCN1CCN(C(c2ccccc2)c2ccccc2)CC1)N/N=C/c1ccc(O)cc1O | inconclusive: 39.8 µM [inhibitor, single point] |
| O=C(CC1N=C2c3ccccc3N=C(SCc3ccc(Cl)cc3)N2C1=O)NCc1ccco1 (configuration not stated) | inconclusive: 22.4 µM [inhibitor, partial curve] |
| CC(=O)Nc1ccc(OCC[n+]2cccc(C(N)=O)c2)cc1 | inactive |
| C=C1c2c(Cl)ccc(O)c2C(O)=C2C(=O)[C@@]3(O)C(O)=C(C(N)=O)C(=O)[C@@H](N(C)C)[C@@H]3[C@@H](O)[C@H]12 | inconclusive: 14.1 µM [inhibitor, partial curve] |
| COc1ccc(N2C(=O)CC(N3CCOCC3)C2=O)cc1 (configuration not stated) | inactive |
| O=C(Nc1ccc(F)cc1)c1ccc(COc2ccccc2)cc1 | inactive |
| Cc1cc(NS(=O)(=O)c2ccc(NC(=O)c3cc(-c4ccccc4Cl)nc4ccccc34)cc2)no1 | inactive |
| Cn1c(SCC(=O)N/N=C/c2cccs2)nc2ccccc21 | inactive |
| CCCC1=C(C(=O)OCC)C(c2c(C)nn(-c3ccccc3)c2Cl)C(C#N)=C(N)O1 (configuration not stated) | inconclusive: 39.8 µM [inhibitor, single point] |
| Cc1cc2oc(=O)cc(CN3CCOCC3)c2cc1C | inconclusive: 39.8 µM [inhibitor, single point] |
| Cc1nn(-c2ccccc2)c2sc(-c3nnc(SCC(=O)O)o3)cc12 | inconclusive: 31.6 µM [inhibitor, partial curve] |
| Cc1ccc(N2CCN(c3ccc(C)cc3)C2c2ccncc2)cc1 | inactive |
| N#Cc1ccc(Oc2nc(C#N)cc(-c3ccccc3)n2)cc1 | inconclusive: 7.94 µM [inhibitor, single point] |
| CC(C)CCNC(=O)c1ccc(Cl)c(NC(=O)Cc2ccccc2)c1 | inactive |

| Structure (SMILES) | Potency |
| --- | --- |
| O=C(c1ccccc1F)N1CCN(c2ccc([N+](=O)[O-])c(NCc3cccnc3)c2)CC1 | inactive |
| CCN(CC)CCCn1c(-c2ccccc2)nc2c(NCc3ccccc3)nc(C)nc21 | inconclusive: 25.1 µM [inhibitor, partial curve] |
| Cc1ccc(OCCNC(=O)c2cc(=O)[nH]c3ccccc23)cc1 | inconclusive: 31.6 µM [inhibitor, single point] |
| CNc1oc(-c2ccc(C)cc2)nc1P(=O)(c1ccccc1)c1ccccc1 | inactive |
| CCc1nnc(NC(=O)c2ccc(S(=O)(=O)N(CC)Cc3ccccc3)cc2)o1 | inactive |
| Cc1csc2c(=O)sc(NC(=O)c3ccc(F)cc3)nc12 | inconclusive: 28.2 µM [inhibitor, single point] |
| Cn1c2ccc(CC(=O)O)cc2c2cc(CC(=O)O)ccc21 | inconclusive: 25.1 µM [inhibitor, partial curve] |
| Cc1cc(C)c(-c2cc(C(F)(F)F)no2)c(=O)[nH]1 | inconclusive: 12.6 µM [inhibitor, partial curve] |
| Cc1ccc(OCC(=O)N2c3ccccc3NC(=O)C2(C)C)c([N+](=O)[O-])n1 | inconclusive: 31.6 µM [inhibitor, partial curve] |
| Cc1ccc(C(=O)CC(=O)COc2ccc(Cl)cc2)cc1 | inconclusive: 39.8 µM [inhibitor, single point] |
| COc1ccc(-c2cc(-c3ccc(N)cc3)nc(N)c2C#N)cc1OC | inconclusive: 25.1 µM [inhibitor, partial curve] |
| CC(C)Cn1c(-c2ccc(F)cc2)n[nH]c1=S | inconclusive: 39.8 µM [inhibitor, single point] |
| Cc1ccc(Cn2c(SCCN3CCCCC3)nc3c2c(=O)[nH]c(=O)n3C)cc1 | inactive |
| Cc1cccc2cc3c(N)c(C(=O)Nc4ccc(N5CCOCC5)cc4)sc3nc12 | inconclusive: 39.8 µM [inhibitor, single point] |
| CCOC(=O)N1CCC(NC(=O)c2cc3c(-c4cccc(OC)c4)nn(C)c3s2)CC1 | inconclusive: 35.5 µM [inhibitor, partial curve] |
| CSc1nc2ccc(NC(=O)c3cc4ccccc4o3)cc2s1 | inconclusive: 35.5 µM [inhibitor, single point] |
| CCOC(=O)C1CCCN(C(=O)Cc2c(C(=O)O)[nH]c3ccccc23)C1 (configuration not stated) | inconclusive: 35.5 µM [inhibitor, single point] |
| CNCCOc1nc(N2CCOCC2)nc(C)c1[N+](=O)[O-] | inconclusive: 35.5 µM [inhibitor, single point] |
| CCc1c(C)c2c(C)nn(-c3ccccc3)c2[nH]c1=O | inconclusive: 35.5 µM [inhibitor, single point] |
| c1cc2c3c(cccc3c1)C(N1CCCCCC1)=N2 | inconclusive: 35.5 µM [inhibitor, single point] |
| Cc1ccc(C)c(OCCCN2CCCC2)c1 | inconclusive: 39.8 µM [inhibitor, single point] |
| C=C[C@@H](C1=CC(=O)C(OC)=C(OC)C1=O)c1ccccc1 | inconclusive: 0.891 µM [inhibitor, full curve] |
| CSc1nc(SC)c2c3c(oc2n1)COC(C)(C)C3 | inconclusive: 39.8 µM [inhibitor, single point] |
| COc1ccc(-c2ccc(-c3noc(-c4ccccc4)n3)c(OC)n2)cc1 | inconclusive: 14.1 µM [inhibitor, partial curve] |

| Structure (SMILES) | Potency |
| --- | --- |
| O=C(Cn1c2ccc(F)cc2c2nc3n(c(=O)c21)CCS3)Nc1ccccc1F | inconclusive: 31.6 µM [inhibitor, partial curve] |
| CCc1c(C)c2c(C)nn(-c3ccccc3)c2oc1=O | inconclusive: 31.6 µM [inhibitor, single point] |
| O=C(c1ccc2c3n(nc2c1)-c1ccccc1CO3)N1CCCCC1 | inconclusive: 39.8 µM [inhibitor, single point] |
| CCC(Sc1nc(-c2ccccc2)cc(=O)[nH]1)C(=O)O (configuration not stated) | inactive |
| Cc1cccc(S(=O)(=O)NNC(=O)Cc2cccn2C)c1 | inactive |
| CCOc1ccc(CC(=O)Nc2c(C(=O)Nc3ccccc3)oc3ccccc23)cc1OCC | inconclusive: 2.51 µM [inhibitor, partial curve] |
| Cc1nc2c([nH]c3ccccc32)c(=O)n1N | inconclusive: 31.6 µM [inhibitor, single point] |
| Cc1ccc(-n2c(C)cc(C(=O)COc3c(CO)cc(F)cc3CO)c2C)cc1C | inactive |
| CCCC(C)NCC(=O)Nc1ccccc1-c1ccccc1 (configuration not stated) | inconclusive: 39.8 µM [inhibitor, single point] |
| COC(=O)[C@@]1(Cc2ccc(OC)cc2)[C@@H]2[C@@H](CC(=O)[C@H]2CC(=O)C(=O)N(C)C)CN1C(=O)c1ccccc1 | inactive |
| COc1ccccc1N1CCN(CC(O)COc2ccc3c(C)cc(=O)oc3c2)CC1 (configuration not stated) | inconclusive: 31.6 µM [inhibitor, partial curve] |
| COC(=O)C(C)Sc1nc2c(c(=O)n(C)c(=O)n2C)n1CCC(C)C (configuration not stated) | inactive |
| C[C@@H](CN1c2ccccc2Sc2ccccc21)N(C)C | inactive |
| Cc1ccc(/C=N/NC(=O)NC23CC4CC(CC(C4)C2)C3)o1 | inactive |
| Cc1cc([N+](=O)[O-])cnc1N1CCOCC1 | inactive |
| CCC1CCCCN1C(=O)COC(=O)c1cc2ccccc2cc1O (configuration not stated) | inconclusive: 39.8 µM [inhibitor, single point] |
| O=C(Oc1ccc(Cl)c2cccnc12)N1CCOCC1 | inconclusive: 35.5 µM [inhibitor, single point] |
| Cc1nc2nc(C)c(CCC(=O)O)c(C)n2n1 | inconclusive: 39.8 µM [inhibitor, single point] |
| c1nc(N2CCC3(CC2)OCCO3)c2c3c(sc2n1)CCCC3 | inactive |
| Cc1cc2c3nonc3ccc2n1-c1ccccc1 | inconclusive: 35.5 µM [inhibitor, single point] |
| O=C(NCCCCNC(=O)c1ccc(Cl)s1)c1ccc(Cl)s1 | inactive |
| Cn1c(COc2ccc(Cl)cc2)nc2ccccc2c1=O | inconclusive: 31.6 µM [inhibitor, single point] |
| Cc1ccc(C(=O)N/N=C/c2cc(C)n(-c3ccc(Br)cc3)c2C)cc1[N+](=O)[O-] | inactive |
| CCN1/C(=C/c2cc[n+](C)cc2)C=Cc2cc(C)ccc21 | inconclusive: 14.1 µM [inhibitor, partial curve] |
